Source: the supplement of paper PMC4967469
Lines with a small IC50 respond at low doses; where the fit passes the top or lowest dose, that dose stands as a limit. The AUC spans the tested range (256-fold, ending at the top dose) of the same fit; the more sensitive the line, the further below 1. For some of these results: Where the top dose is marked as inferred, it is not printed in the source and was worked back from the curve model.

Columns and labels:
Experiment in all cases: Viability of human cancer cell lines after 72 h of drug (GDSC screen)
Lapatinib = compound: CS(=O)(=O)CCNCc1ccc(-c2ccc3ncnc(Nc4ccc(OCc5cccc(F)c5)c(Cl)c4)c3c2)o1 [Lapatinib]; settings: top dose 2 µM
Protocol: (§1)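 Human cancer cell lines in 384-well plates, medium with 10% serum, drug for 72 h over a 256-fold dose range (nine 2-fold or five 4-fold steps up to the top dose). Adherent lines were fixed and stained with the nucleic acid dye Syto60, suspension lines read with resazurin; signal relative to control wells, capped at 0 and 100%. One two-parameter sigmoid per drug and line, fitted in a mixed model over all curves with the slope shared within a line.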

TGX221 = compound: Cc1cc(C(C)Nc2ccccc2)c2nc(N3CCOCC3)cc(=O)n2c1 [TGX221]; settings: top dose 10 µM
Protocol: as §1

PD-173074 = compound: CCN(CC)CCCCNc1ncc2cc(-c3cc(OC)cc(OC)c3)c(NC(=O)NC(C)(C)C)nc2n1 [PD-173074]; settings: top dose 2 µM; top dose inferred
Protocol: as §1

SB590885 = compound: CN(C)CCOc1ccc(-c2nc(-c3ccncc3)c(-c3ccc4c(c3)CC/C4=N\O)[nH]2)cc1 [SB590885]; settings: top dose 5 µM; top dose inferred
Protocol: as §1

Cell Line	AUC (Lapatinib)	IC50 (Lapatinib) [µM]	AUC (TGX221)	IC50 (TGX221) [µM]	AUC (PD-173074)	IC50 (PD-173074) [µM]	AUC (SB590885)	IC50 (SB590885) [µM]
KINGS-1 (glioma, adherent)	0.973	> 2	0.858	> 10	0.975	> 2	0.979	> 5
KM12 (large intestine, adherent)	0.979	> 2	0.95	> 10	0.977	> 2	0.975	> 5
KM-H2 (Hodgkin lymphoma, suspension)	0.993	> 2	0.984	> 10	0.981	> 2	0.989	> 5
KMOE-2 (acute myeloid leukaemia, suspension)	0.983	> 2	0.99	> 10	0.966	> 2	0.952	> 5
KNS-42 (glioma, adherent)	0.94	> 2	0.862	> 10	0.984	> 2	0.981	> 5
KNS-81-FD (glioma, adherent)	0.932	> 2	0.866	> 10	0.979	> 2	0.98	> 5
KP-N-YN (neuroblastoma, adherent)	0.967	> 2	0.986	> 10	0.974	> 2	0.987	> 5
KS-1 (glioma, adherent)	0.815	1.46	0.811	6.98	0.951	> 2	0.98	> 5
KU812 (chronic myeloid leukaemia, suspension)	0.984	> 2	0.951	> 10	0.939	> 2	0.948	> 5
KURAMOCHI (ovary, adherent)	0.964	> 2	0.895	> 10	0.984	> 2	0.984	> 5
KY821 (leukaemia, suspension)	0.989	> 2	0.99	> 10	0.967	> 2	0.989	> 5
L-363 (myeloma, suspension)	0.991	> 2	0.99	> 10	0.947	> 2	0.973	> 5
L-428 (Hodgkin lymphoma, suspension)	0.993	> 2	0.993	> 10	0.984	> 2	0.992	> 5
L-540 (Hodgkin lymphoma, suspension)	0.978	> 2	0.99	> 10	0.99	> 2	0.99	> 5
L-1236 (Hodgkin lymphoma, suspension)	0.985	> 2	0.967	> 10	0.992	> 2	0.992	> 5
LAMA-84 (chronic myeloid leukaemia, suspension)	0.987	> 2	0.986	> 10	0.859	1.7	0.981	> 5
LAN-6 (neuroblastoma, adherent)	0.982	> 2	0.985	> 10	0.985	> 2	0.985	> 5
LB373-MEL-D (melanoma, adherent)	0.962	> 2	0.963	> 10	0.99	> 2	0.99	> 5
LB647-SCLC (small cell lung carcinoma, semi-adherent)	0.938	> 2	0.98	> 10	0.897	> 2	0.95	> 5
LB771-HNC (head and neck, adherent)	0.894	> 2	0.973	> 10	0.982	> 2	0.91	> 5

Cell Line	AUC (Lapatinib)	IC50 (Lapatinib) [µM]	AUC (TGX221)	IC50 (TGX221) [µM]	AUC (PD-173074)	IC50 (PD-173074) [µM]	AUC (SB590885)	IC50 (SB590885) [µM]
LB831-BLC (bladder, adherent)	0.979	> 2	0.928	> 10	0.978	> 2	0.987	> 5
LB996-RCC (kidney, adherent)	0.721	0.592	0.872	> 10	0.979	> 2	0.983	> 5
LB1047-RCC (kidney, adherent)	0.864	> 2	0.945	> 10	0.937	> 2	0.983	> 5
LB2518-MEL (melanoma, adherent)	0.987	> 2	0.955	> 10	0.984	> 2	0.987	> 5
LC4-1 (lymphoblastic leukaemia, suspension)	0.983	> 2	0.88	> 10	0.979	> 2	0.985	> 5
LC-2-ad (lung adenocarcinoma, adherent)	0.937	> 2	0.949	> 10	0.922	> 2	0.975	> 5
LNCaP-Clone-FGC (prostate, adherent)	0.982	> 2	0.982	> 10	0.982	> 2	0.984	> 5
LOUCY (T-cell lymphoblastic leukaemia, suspension)	0.991	> 2	0.99	> 10	0.88	1.43	0.98	> 5
LOXIMVI (melanoma, semi-adherent)	0.989	> 2	0.99	> 10	0.988	> 2	0.826	2.59
LP-1 (myeloma, suspension)	0.984	> 2	0.985	> 10	0.99	> 2	0.993	> 5
LS-1034 (large intestine, adherent)	0.985	> 2	0.985	> 10	0.979	> 2	0.986	> 5
LU-65 (large cell lung carcinoma, suspension)	0.962	> 2	0.978	> 10	0.987	> 2	0.987	> 5
LU-134-A (small cell lung carcinoma, suspension)	0.963	> 2	0.987	> 10	0.973	> 2	0.986	> 5
LU-139 (small cell lung carcinoma, suspension)	0.972	> 2	0.978	> 10	0.838	1.94	0.772	2.5
LU-165 (small cell lung carcinoma, suspension)	0.986	> 2	0.988	> 10	0.987	> 2	0.987	> 5
LXF-289 (lung adenocarcinoma, adherent)	0.941	> 2	0.856	7.86	0.946	> 2	0.963	> 5
MC116 (B-cell lymphoma, suspension)	0.999	> 2	0.991	> 10	0.999	> 2	0.999	> 5
MC-CAR (haematopoietic neoplasm, suspension)	0.987	> 2	0.989	> 10	0.93	> 2	0.928	> 5
MDST8 (large intestine, adherent)	0.983	> 2	0.982	> 10	0.988	> 2	0.962	> 5
ME-1 (acute myeloid leukaemia, suspension)	0.989	> 2	0.989	> 10	0.98	> 2	0.988	> 5

Cell Line	AUC (Lapatinib)	IC50 (Lapatinib) [µM]	AUC (TGX221)	IC50 (TGX221) [µM]	AUC (PD-173074)	IC50 (PD-173074) [µM]	AUC (SB590885)	IC50 (SB590885) [µM]
MEG-01 (chronic myeloid leukaemia, suspension)	0.974	> 2	0.988	> 10	0.971	> 2	0.986	> 5
MFH-ino (soft tissue, adherent)	0.948	> 2	0.89	> 10	0.983	> 2	0.978	> 5
MHH-NB-11 (neuroblastoma, adherent)	0.983	> 2	0.978	> 10	0.985	> 2	0.985	> 5
MHH-PREB-1 (B-cell leukaemia, suspension)	0.969	> 2	0.943	> 10	0.971	> 2	0.975	> 5
ML-2 (acute myeloid leukaemia, suspension)	0.989	> 2	0.957	> 10	0.989	> 2	0.984	> 5
MLMA (hairy cell leukaemia, semi-adherent)	0.986	> 2	0.886	> 10	0.981	> 2	0.953	> 5
MN-60 (B-cell leukaemia, suspension)	0.988	> 2	0.988	> 10	0.985	> 2	0.987	> 5
MOLM-13 (acute myeloid leukaemia, suspension)	0.98	> 2	0.911	> 10	0.966	> 2	0.974	> 5
MOLP-8 (myeloma, suspension)	0.917	> 2	0.96	> 10	0.981	> 2	0.951	> 5
MONO-MAC-6 (acute myeloid leukaemia, suspension)	0.958	> 2	0.949	> 10	0.94	> 2	0.964	> 5
MPP-89 (mesothelioma, adherent)	0.929	> 2	0.773	5.13	0.926	> 2	0.981	> 5
MRK-nu-1 (breast, suspension)	0.977	> 2	0.903	> 10	0.988	> 2	0.99	> 5
MS-1 (small cell lung carcinoma, suspension)	0.981	> 2	0.99	> 10	0.989	> 2	0.991	> 5
MSTO-211H (mesothelioma, adherent)	0.984	> 2	0.97	> 10	0.825	1.05	0.99	> 5
MY-M12 (leukaemia, suspension)	0.979	> 2	0.959	> 10	0.968	> 2	0.977	> 5
MZ1-PC (pancreas, adherent)	0.945	> 2	0.945	> 10	0.962	> 2	0.975	> 5
MZ7-mel (melanoma, adherent)	0.983	> 2	0.903	> 10	0.987	> 2	0.857	4.28
Mo-T (hairy cell leukaemia, suspension)	0.987	> 2	0.987	> 10	0.983	> 2	0.988	> 5
NALM-6 (B-cell leukaemia, suspension)	0.971	> 2	0.95	> 10	0.968	> 2	0.982	> 5
